About 14,000 (4.5%) of roughly 310,000 compounds showed an effect of 50% or more. The effect is printed as a negative number. The list shows a part of the results.
Molecular target: human ether-à-go-go-related gene (hERG) potassium channel (human, UniProt Q12809)
Assay: primary screen, population patch clamp on CHO cells stably expressing hERG
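Note: peak tail current of the secondary pulse compared with the same well before compound.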

Chain of human ether-à-go-go-related gene (hERG) potassium channel (Q12809 whole entry, looked up): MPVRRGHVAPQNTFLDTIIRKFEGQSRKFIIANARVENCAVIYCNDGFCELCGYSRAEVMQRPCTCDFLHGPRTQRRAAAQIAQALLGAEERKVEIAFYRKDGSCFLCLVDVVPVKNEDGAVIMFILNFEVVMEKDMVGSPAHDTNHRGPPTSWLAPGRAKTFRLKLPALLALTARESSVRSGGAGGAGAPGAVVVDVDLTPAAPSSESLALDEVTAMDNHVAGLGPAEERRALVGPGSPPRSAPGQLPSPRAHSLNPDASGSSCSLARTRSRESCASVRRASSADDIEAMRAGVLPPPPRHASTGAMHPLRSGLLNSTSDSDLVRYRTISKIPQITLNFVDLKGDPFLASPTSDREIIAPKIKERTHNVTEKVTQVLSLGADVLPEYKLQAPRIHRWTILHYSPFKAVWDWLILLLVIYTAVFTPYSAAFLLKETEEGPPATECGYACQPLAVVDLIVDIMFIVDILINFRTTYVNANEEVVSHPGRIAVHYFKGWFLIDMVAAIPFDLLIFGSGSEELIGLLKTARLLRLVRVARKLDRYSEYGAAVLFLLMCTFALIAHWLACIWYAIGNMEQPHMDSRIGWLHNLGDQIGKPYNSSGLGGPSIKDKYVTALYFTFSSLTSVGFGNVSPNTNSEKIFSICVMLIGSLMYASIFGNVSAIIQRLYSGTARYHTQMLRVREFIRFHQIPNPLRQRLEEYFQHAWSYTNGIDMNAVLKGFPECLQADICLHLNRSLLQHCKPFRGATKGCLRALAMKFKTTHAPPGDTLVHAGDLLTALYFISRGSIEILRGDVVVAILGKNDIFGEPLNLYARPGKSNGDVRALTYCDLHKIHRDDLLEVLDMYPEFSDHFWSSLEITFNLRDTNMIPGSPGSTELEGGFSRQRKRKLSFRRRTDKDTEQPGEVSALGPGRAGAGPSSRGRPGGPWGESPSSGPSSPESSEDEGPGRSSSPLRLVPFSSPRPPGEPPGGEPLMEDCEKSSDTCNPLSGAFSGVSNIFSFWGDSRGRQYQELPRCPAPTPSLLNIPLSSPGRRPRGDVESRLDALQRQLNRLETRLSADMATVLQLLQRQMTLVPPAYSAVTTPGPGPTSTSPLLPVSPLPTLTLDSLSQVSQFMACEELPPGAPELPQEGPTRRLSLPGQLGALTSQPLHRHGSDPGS

Row | SMILES | hERG current change (%, negative = inhibition) at 10uM [%]
1 | Cc1c(Cl)cccc1-c1ccc(C(=O)N2CCN(c3ccc([N+](=O)[O-])cc3)CC2)o1 | -14
2 | NS(=O)(=O)c1ccc(CCNC(=O)CNC(=O)Cc2ccccc2)cc1 | 23.6
3 | c1cc(CNC2=NCCCCC2)ccn1 | 3.06
4 | CC(C)[C@H](NS(=O)(=O)c1ccc2c(c1)OCCO2)C(=O)OCC(=O)Nc1cc(Cl)ccc1Cl | 1.67
5 | COc1cc(NC(=O)CCCOc2ccc(Cl)cc2Cl)c(C(=O)O)cc1OC | -10.6
6 | N/C(=N\OC(=O)CCCOc1ccccc1)c1ccccc1 | 7.28
7 | O=C(Nc1ccccc1)N1CCN(C2c3ccccc3-c3ccccc32)CC1 | 13.7
8 | CCC(C)NC(=O)CN(c1ccc(Cl)c(Cl)c1)S(C)(=O)=O (centres unmarked) | 3.62
9 | CCCc1nc(SCc2ccccn2)c2c(=O)n(C)c(=O)n(C)c2n1 | -59.1
10 | CCCCN(C(=O)c1cccc(C)c1)c1c(N)n(CCC)c(=O)[nH]c1=O | 17.3
11 | Cc1ccc2nc(NC(=O)CSc3nc(=O)n(CCCN(C)C)c4c3CCC4)sc2c1 | -50.2
12 | CC(=O)N1N=C(c2cccc(Cl)c2)OC1c1ccc(C(C)C)cc1 (centres unmarked) | 6.7
13 | Cc1cccc(C(=O)Nc2ccccc2SCC(=O)Nc2ccc(C)c(Cl)c2)c1 | 28.5
14 | CC(C)c1ccc(NC2CCCN(C(=O)CN3CCCC3=O)C2)cc1 (centres unmarked) | 12.8
15 | CN1C2C(Br)CCCCN2c2ccc(F)cc2S1(=O)=O (centres unmarked) | -7.86
16 | O=C(Nc1c2c(nn1-c1ccc(Cl)cc1)CS(=O)(=O)C2)c1ccccc1 | 1.37
17 | COc1ccccc1/C=N/NC(=O)c1nnn(-c2nonc2N)c1-c1cccs1 | 13
18 | COc1ccccc1N1CN(CCc2ccccc2)CNC1=S | 6.07
19 | Cc1ccc(-c2[nH][nH]c(=O)c(=O)c2N=Nc2ccccc2)cc1 | 12.9

Row | SMILES | hERG current change (%, negative = inhibition) at 10uM [%]
20 | O=C(c1cc2c(s1)-c1ccccc1S(=O)(=O)C2)N1CCN(Cc2ccccc2)CC1 | -34.3
21 | Cc1ccc(NC(=O)CCC(=O)NNC(=O)C(C)(C)C)c(C)c1 | -12.3
22 | Cc1c(N=CN2CCOCC2)c(=O)n(C)c(=O)n1C | 2.15
23 | NC(=O)N/N=C/c1cn(CC(=O)Nc2ccc(F)cc2)c2ccccc12 | -0.767
24 | COc1ccccc1OCCNC(=O)CN1C(=O)NC2(CCCCC2)C1=O | -22
25 | CCc1ccc(NC(=O)CSc2nnc(CNC(=O)c3c(F)cccc3Cl)o2)cc1 | 7.23
26 | CCNS(=O)(=O)c1ccc(CCC(=O)N2CCN(c3ccccc3F)CC2)cc1 | -0.133
27 | COc1cc2c(cc1OC)C(C)N(Cc1ccc3c(c1)OCO3)CC2 (centres unmarked) | -3.76
28 | O=C(O)CCC(=O)Nc1cccc(-c2nc3ccccc3o2)c1 | 16.9
29 | O=C1N=C(N2CCCCC2)S/C1=C\c1ccc(Br)cc1 | 10.4
30 | COc1ccc(CNC(=O)CCc2nc3cc(S(=O)(=O)N(C)C)ccc3n2C)cc1OC | 14.3
31 | CCCCNC(=O)CN1CCC2(O)CCCCC2C1c1ccccc1OC (centres unmarked) | -0.712
32 | COc1cc2c(cc1OC)C(c1cccs1)N(C(=O)c1ccncc1)CC2 (centres unmarked) | -66.8
33 | Cc1ccc(-n2c(C)cc(/C=C3\NC(=O)NC3=O)c2C)c(C)c1 | -5.9
34 | CC(C)(C)n1nnnc1C(c1cccc(C#N)c1)N1CCC(Cc2ccccc2)CC1 (centres unmarked) | -8.52
35 | CC(=O)N1c2ccc(S(=O)(=O)N3CCCCC3)cc2CC1C (centres unmarked) | 11.1
36 | CCC(C)[C@H](NC(=O)NCc1cccc(OC)c1)C(=O)O (some centres unmarked) | -4.53
37 | Cc1cc(C)nc(NS(=O)(=O)c2ccc(NC(=O)c3ccccc3[N+](=O)[O-])cc2)n1 | 14.7
38 | Cn1c(CN2CCOCC2)c(C#N)c2ccccc21 | -19.1

Row | SMILES | hERG current change (%, negative = inhibition) at 10uM [%]
39 | COc1ccc(-c2cn[nH]c2-c2ccc(OCc3ccccc3)cc2O)cc1OC | 17.3
40 | O=C(c1cc2c(s1)CCCC2)n1cccn1 | 6.42
41 | Cc1ccc(S(=O)(=O)N(CC(=O)N2CCC(C)CC2)c2ccccc2)cc1 | -26.4
42 | CCC(=O)Nc1ccc2oc(-c3cccc(C)c3)nc2c1 | -7.54
43 | Cc1ccc(C(=O)C2CCN(C(=S)NCC3CCCO3)CC2)cc1 (centres unmarked) | 29.7
44 | NS(=O)(=O)c1ccc(NC(=O)COC(=O)c2ccc(Cl)cc2[N+](=O)[O-])cc1 | -7.82
45 | COc1ccc(NC(=O)c2cccc(NC(=O)C(C)C)c2)c([N+](=O)[O-])c1 | 5.22
46 | O=C(CN1C(=O)NC(c2ccccc2)(c2ccccc2)C1=O)NCc1ccccc1 | -31
47 | Cc1[nH]nc2c1[C@@H](c1ccccc1[N+](=O)[O-])C(C#N)=C(N)O2 | 13.5
48 | O=c1[nH]cnc2ncc(-c3ccc(O)cc3)nc12 | 5.11
49 | Cc1nc(SCC(=O)Nc2c(C)n(C)n(-c3ccccc3)c2=O)[nH]c(=O)c1C | 3.4
50 | Cc1c(NC(=S)NC(=O)c2ccco2)c(=O)n(-c2ccccc2)n1C | 1.44
51 | CCCCOc1ccc(Cl)cc1CSc1nncn1N | -1.87
52 | CCc1ccc(NC(=O)C2CCCN2S(=O)(=O)c2ccc3c(c2)n(C)c(=O)c(=O)n3C)cc1 (centres unmarked) | -46.8
53 | CCOC(=O)c1cccc(NC(=O)c2cncc(Br)c2)c1 | -17.3
54 | Cc1ccc(C)c(C(C)NC(=O)Cc2cccs2)c1 (centres unmarked) | 13.5
55 | COc1ccc(C(=O)NC(=S)Nc2cccnc2)cc1Cl | -5.85
56 | CN(C)Cc1nc2ccccc2c(=O)n1CC(=O)Nc1cccc(S(=O)(=O)N2CCOCC2)c1 | -14.4
